# Experimental data reported in ChEMBL document CHEMBL4888484, “Replenishing the malaria drug discovery pipeline: Screening and hit evaluation of the MMV Hit Generation Library 1 (HGL1) against asexual blood stage Plasmodium falciparum ,using a nano luciferase reporter read-out” (2022).
# Screen size: about 150,000 compounds; about 540 (0.36%) showed an effect of 50% or more. The list shows a part of the results.
# System: Plasmodium falciparum
# Experiment: Primary screen in NF54 nanoGlo assay, in single point, at 2uM, 72h; a lower Z score goes with more inhibition
# Assay type: functional, Erythrocyte
# Conditions: timepoint 72 hour
SMILES,% Inhibition,Z score
CN1CCN(C[C@@H]2CN(C(=O)c3cccc(OC(F)F)c3)C[C@@H]2CO)CC1,-3%,0.49
Cn1nncc1C1(O)CN(c2ncnc3[nH]ccc23)C1,-3%,0.53
CN([C@H]1CC(=O)N(Cc2ccccc2)C1=O)S(=O)(=O)c1cccnc1,-11%,1.67
CC(=O)c1cccc(NC(=O)CC2CCN(S(=O)(=O)c3ccc4c(c3)CCN4C(C)=O)CC2)c1,5%,-0.46
O=C(Cn1nnc2ccccc2c1=O)N1CCC(c2nc3ccccc3o2)CC1,-5%,0.89
O=c1[nH]nc(C2CC=CC2)n1C[C@H]1CCCO1,-11%,1.66
COc1ccc2c(c1)N(S(=O)(=O)c1ccc(C)cc1)CCCC2=O,-19%,2.23
Cc1cc(C)c(C(=O)O)cc1NC(=O)c1oc(C2CC2)nc1C,25%,-4.95
N#Cc1c(N2CCOCC2)ncnc1N1CCN(c2cccc(C(F)(F)F)c2)CC1,-19%,1.92
C=CCn1c(C2CCCC2)nn(C)c1=O,-6%,0.93
Cn1c(N2CC3CC2(C)C3)cc(=O)n(C)c1=O,-13%,1.2
CC1CN(CCNc2ncccc2C(=O)O)C(C)CO1 (stereo not given),-8%,0.76
COc1ccc(-c2cnn(CCO)c2)c(OC)n1,-1%,0.23
CC[C@H]1CN(C(=O)c2cnn(-c3ccccc3)n2)CCO1,-4%,0.62
COc1ccc(-c2cc(-c3ccc(OC)cc3)nc(-c3ccc4c(c3)NC(=O)CO4)c2)cc1,-29%,3.39
O=C(NCc1nnc2ccccn12)[C@@H]1Cc2cc(Cl)ccc2N1,-5%,0.63
Cc1ccc(-c2nsc(NC(=O)[C@H]3CCS(=O)(=O)C3)n2)s1,-7%,1.23
Cc1nnsc1C(=O)NCC1(CO)CC1,-19%,2.78
CCn1cc(S(=O)(=O)N2CC[C@H](Cc3nnc(-c4ccccc4)o3)C2)cn1,-18%,2.64
C=CC[C@]1(CO)CCCN(C(=O)c2cc(CCC)nn2C)C1,-6%,1.09
Cc1nn(C)c(Oc2cccc(F)c2)c1NC(=O)c1ccccn1,-2%,0.28
Cc1cc(Cl)ccc1OCCN1CCN(C(=O)c2cncnc2C)CC1,-5%,0.76

SMILES,% Inhibition,Z score
C(=Cc1csc(-c2ccccn2)n1)c1ccncn1,9%,-0.98
CC(C)n1nccc1NC(=O)C[C@@H]1OCCc2ccsc21,0%,0.05
c1csc(N2CCN(c3nnc(C4CC4)o3)CC2)n1,-5%,0.73
CCCc1nc(CN(C)Cc2ccc(Cl)o2)no1,-8%,1.67
O=C(Nc1cnc(C2CC2)nc1)N1CCN(c2ccncc2Cl)CC1,-8%,0.94
CCCCN1CCN(Cc2cc(C)cc(C)c2)[C@H]2CS(=O)(=O)C[C@H]21,-23%,2.92
CC(C)(C)c1ccc(S(=O)(=O)N2C=CC(C(F)(F)Cl)=NCC2)cc1,-4%,0.49
CCOc1ccc(-c2noc(CN3N=NC4C(=O)N(c5ccc(C)c(F)c5)C(=O)C43)n2)cc1OC (stereo not given),0%,0
O=C(NCc1nnc(C(=O)Nc2cccc(F)c2)s1)c1ccc(F)cc1,-3%,0.52
Cc1cc(C)nc(NCc2nocc2C)n1,4%,-0.71
O=C(NC1CCOCC1)c1nn(-c2ccc(Cl)cc2Cl)c2c1CCC2,-14%,2.46
CC(C)(C)c1nc(N[C@H]2CC[C@@H](CO)C2)no1,-7%,0.76
CC1(C)CN(C(=O)NCc2nnc3ccccn23)CCN1Cc1ccccc1,-9%,1.02
O=C(c1ccccc1)N1CCN([C@H]2CC(=O)N(c3ccccc3)C2=O)CC1,-9%,1.42
O=C1CN(c2ncccc2NC(=O)c2cccc(F)c2F)CCN1,-4%,0.51
O=C(c1cccc2cc[nH]c12)N1CCCO1,-5%,0.78
FC(F)(F)c1nc(-c2cc(NCc3ccncc3)nc3[nH]ccc23)n[nH]1,-7%,0.87
Cc1ccc(Cn2c(=O)c3c(nc(N4CCNCC4)n3C)n(C)c2=O)cc1,0%,-0.07
[O-][S+]1CCN(Cc2cc(F)cc(C(F)(F)F)c2)CC1,-8%,1.24
CC(=O)N1CCC[C@@](NCc2nc3ccccc3[nH]2)(c2nnnn2CCC(C)C)C1,-12%,1.54
COc1ccc(-c2ccc(CNC(=O)c3nc(=O)[nH][nH]3)s2)cc1,-17%,2.1
COCc1noc(C[C@H]2CN(C(=O)Nc3cc(C)ccc3OC)CCO2)n1,-3%,0.55

SMILES,% Inhibition,Z score
Cn1cc(C#N)cc1C(=O)N1CCOC[C@@H]1Cc1ccccc1,-7%,0.64
CCN1CCC(N(C)S(=O)(=O)c2cncc(Br)c2)C(C)C1 (stereo not given),-5%,0.93
CC[C@@H](CS(=O)(=O)Nc1cc(-c2nnn[nH]2)ccc1F)OC,4%,-0.56
CC1CCC(OC2CCN(C(=O)c3nccnc3N)CC2)CC1 (stereo not given),1%,-0.13
COc1ccc(-c2c[nH]c(C(=O)N3CCCCC3)c2)c(C)c1,-8%,1.36
Cc1cc(N2CCOCC2)ccc1NC(=O)Cc1csc(NC(=O)c2ccccc2)n1,-5%,0.93
COc1ccc(C2c3c([nH][nH]c3=O)CC(C)(O)C2C(=O)Nc2ccccc2C)cc1 (stereo not given),-3%,0.3
CC(C)(C)c1cc[n+]2c(c1)ncc1sc(=O)[n-]c12,-4%,0.57
CNC(=O)Cn1c(Cc2ccccc2)nn(-c2ccccc2OC)c1=O,7%,-0.98
Cc1csc(C(C)(C)NCc2nnc(C(C)C)o2)n1,-13%,1.71
O=S(=O)(CC1CC(F)(F)C1)N1CCOC[C@H]1c1ncnn1-c1ccccc1,-4%,0.85
O=C(c1c[nH]c(=O)c(Br)c1)N1CCOC2CCCCC21 (stereo not given),-9%,1.17
COc1cc([C@H]2CC(=O)Nc3nc(N)sc32)ccc1OCc1cccc(F)c1,-16%,2.03
CC(C)CNC(=O)N1CCc2c(c(-c3nc(C4CC4)no3)nn2C)C1,-6%,1.04
Cc1ccc2oc(N3CC[C@H](N4CCN(C)CC4)[C@H](CCCO)C3)nc2c1,1%,-0.24
CN1CCC(N(Cc2cccnc2)C(=O)Nc2ccccc2C(F)(F)F)CC1,-10%,1.43
Cc1cc(C)nc(CN(C)C[C@@H]2CC=CCC2)c1,-8%,1.63
c1cc(-c2ccn(C[C@H]3COCCO3)n2)cc(-c2nccs2)c1,-16%,1.48
O=C(Cc1cnn(-c2ccccc2)c1)NC1CC1,-5%,0.77
CO[C@@H](C)c1nc(CN(C)C(=O)c2ccc(C(C)C)cn2)cs1,-10%,1.76
Cc1nc(-c2ccccc2)c(C(=O)N(C)[C@@H](C)c2ccon2)s1,-5%,0.77
COC(=O)c1ccnc(NS(=O)(=O)Cc2ccc(C)c(F)c2)c1,-13%,1.16

SMILES,% Inhibition,Z score
CN(C)S(=O)(=O)N1CCC(CNS(=O)(=O)c2ccc(-n3cccn3)cc2)CC1,-4%,0.51
CCOc1ccc(-c2cn(Cc3ccncc3)nn2)cc1Cl,-10%,2.05
CCc1ncc2c(n1)CN(C(=O)c1cc(C3CC3)nc3ccccc13)C2,-11%,1.04
O=C(Nc1ccccc1N1CCOCC1)[C@H]1CCCN(c2c(-c3ccccc3)c3cc(Cl)ccc3[nH]c2=O)C1,-44%,5.17
CCOc1cccc2c1Oc1c(c(=O)n(-c3ccc(CC)cc3)n1CC(=O)NCc1ccccc1)C2,-16%,1.63
C[C@@]1(C(=O)NC2(CN3CCCC3)CCCCC2)CCCO1,-12%,1.23
CCOC[C@H](NCc1cc(C#N)ccc1F)C(C)C,-10%,1.84
CC(C)(C)OC(=O)NC[C@H](O)c1ccccc1Cl,0%,0.01
N#CCNC(=O)c1cccc(Br)c1,9%,-1.24
CNC(=O)[C@@H]1C[C@@H](Nc2ncccn2)CN1Cc1coc(-c2ccccc2)n1,-11%,1
CCc1cccc(NC(=O)c2ccc3c(=O)n4c(nc3c2)CCCC4)c1,-1%,0.16
C[C@H](Nc1ccc(Cl)c(F)c1)C(=O)NC(N)=O,-2%,0.22
Cc1cn(C)nc1NC(=O)N1CC(O)(c2cccc(Br)c2)C1,-5%,0.78
O=C(Cn1c(=O)cnc2ccccc21)N1CCCc2ccccc21,1%,-0.26
CN(C)Cc1ccccc1C(=O)N1CCN(c2nc[nH]n2)CC1,-7%,0.99
Cc1cc2c(N3CCC[C@@H]3CO)nccn2n1,-11%,1.44
CCOCCn1cnc(-c2ccccc2)c1-c1cnc2cc(O)ccc2c1,-1%,0.14
N#Cc1cccc(Nc2c3c(nc4ccc(Cl)cc24)CCCC3)c1,-6%,0.83
COc1cc(C)cc2c(C)c(C(=O)N3CC(C(F)(F)F)C3)oc12,-5%,0.64
